Results from PubChem BioAssay AID2675 (National Center for Advancing Translational Sciences (NCATS), 2010).
About 100 (0.036%) of roughly 280,000 compounds were called active. Inconclusive means that the source gave no clear call. Such entries were picked first, then a sample of the others. The call rests on the fitted dose curve; in most records, active means well fitted inhibition curve with a large enough effect in the signal ratio, with a control signal flat (not every such curve was filed as active); inconclusive means small, poorly fitted or top-dose-only effect, or effect the other way, or a change in a side signal; inactive means no such curve, though single readings can be large or run the other way; the % refers to the signal ratio. Potencies of inconclusive entries are doubtful fits and often do not repeat. A note “side channel” means that the fit belongs to a control or component signal, not to the main read-out.

What follows are compounds tested against Muscleblind-like protein 1 (Homo sapiens) (UniProt Q9NR56) (assay: qHTS Assay for Inhibitors of MBNL1-poly(CUG) RNA binding). Details: TR-FRET MBNL1-His/biotin-(CUG)12 binding, 665/545 ratio; series mostly up to 57.5 µM.
Sequence of UniProt Q9NR56 (Q9NR56 whole entry, looked up): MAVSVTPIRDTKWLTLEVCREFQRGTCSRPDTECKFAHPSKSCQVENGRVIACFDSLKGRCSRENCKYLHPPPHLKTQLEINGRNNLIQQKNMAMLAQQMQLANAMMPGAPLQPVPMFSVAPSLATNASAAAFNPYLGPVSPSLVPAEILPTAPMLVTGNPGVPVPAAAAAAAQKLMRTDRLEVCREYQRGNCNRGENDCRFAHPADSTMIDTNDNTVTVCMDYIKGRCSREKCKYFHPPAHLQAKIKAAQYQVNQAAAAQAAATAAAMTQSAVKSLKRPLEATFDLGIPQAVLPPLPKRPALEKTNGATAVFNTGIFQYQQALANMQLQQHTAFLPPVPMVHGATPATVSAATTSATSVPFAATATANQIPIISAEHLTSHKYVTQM
In short: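 Compounds (final 92 nM to 58 uM) are added to His-tagged MBNL1 and biotin-(CUG)12, then terbium anti-His antibody and streptavidin-XL665 (5 nM final). After 60 min at room temperature, the 665/545 nm ratio is read.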
Potency means the concentration at half of the fitted maximal effect; tags describe the fitted curve by direction and shape or compound fluorescence and quenching.

Row | SMILES | Potency
1 | Cc1[nH]n(C(N)=S)c(=O)c1N=Nc1ccc(S(=O)(=O)N2CCCC2)cc1 | inconclusive: 8.91 µM [quencher, side channel, partial curve]
2 | Cc1cc[n+](-c2[nH]c(=O)sc2/C=N/N=C(\[O-])c2ccncc2)cc1 | inconclusive: 17.8 µM [quencher, partial curve]
3 | O=C(COc1ccc([N+](=O)[O-])cc1)N(Cc1cccs1)C1CCS(=O)(=O)C1 (stereo unspecified) | inconclusive: 15.8 µM [quencher, side channel, partial curve]
4 | CC1CC(C)CN(CCCNC(=O)c2ccc3c(SCC(=O)O)c4c(nc3c2)CCC4)C1 (stereo unspecified) | inconclusive: 25.1 µM [quencher, side channel, partial curve, poor fit]
5 | O=C(COC(=O)c1ccc([N+](=O)[O-])s1)Nc1cccc(S(=O)(=O)NC2=NCCCCC2)c1 | inconclusive: 8.91 µM [quencher, side channel, partial curve]
6 | CC(=O)NS(=O)(=O)c1ccc(NC(=O)CCc2ccccc2)cc1 | inconclusive: 0.708 µM [fluorescent, side channel, full curve]
7 | O=Cc1ccc2oc3nc4n(c(=O)c3c(=O)c2c1)CCCS4 | inconclusive: 25.1 µM [quencher, side channel, partial curve]
8 | CC(OC(=O)Cc1n[nH]c(=O)c2ccccc12)C(=O)Nc1cccc([N+](=O)[O-])c1 (stereo unspecified) | inconclusive: 15.8 µM [quencher, partial curve]
9 | COc1cc(/C=C2/SC(=S)N(Cc3ccccc3)C2=O)ccc1OCC(=O)O | inactive
10 | Cc1cccc(OCCCN2C(=O)C(=O)c3cc(C)ccc32)c1 | inconclusive: 20 µM [quencher, side channel, partial curve]
11 | C/C(=N\NC(=O)CNC(=O)C(c1ccccc1)c1ccccc1)c1ccccc1 | inconclusive: 1.78 µM [fluorescent, side channel, partial curve]
12 | COc1ccc2nc(N3CCCC(O)C3)c(C#N)cc2c1 (stereo unspecified) | inconclusive: 17.8 µM [quencher, side channel, partial curve]
13 | Cc1c(NS(=O)(=O)c2ccc(NCC3CCCO3)c([N+](=O)[O-])c2)c(=O)n(-c2ccccc2)n1C (stereo unspecified) | inconclusive: 14.1 µM [quencher, side channel, partial curve]
14 | CC(Cc1ccccc1)C(=O)NCc1nc2ccccc2s1 (stereo unspecified) | inconclusive: 126 µM [inhibitor, partial curve]
15 | Cn1nnnc1SC(C(=O)Nc1ccc(F)cc1)c1ccccc1 (stereo unspecified) | inactive
16 | COc1ccccc1/C=C1\SC(=O)N(CCC(=O)N2CCCCC2CCO)C1=O (stereo unspecified) | inconclusive: 25.1 µM [quencher, side channel, partial curve]
17 | O=C(COc1cccnc1[N+](=O)[O-])NCCc1ccc(Cl)cc1 | inconclusive: 15.8 µM [quencher, side channel, partial curve]
18 | COc1cc(C(=S)N2CCOCC2)ccc1OC(=O)/C=C/c1ccco1 | inconclusive: 10 µM [quencher, side channel, partial curve]

Row | SMILES | Potency
19 | O=C(O)CCc1nc2ccccc2n(CCc2ccccc2)c1=O | inconclusive: 31.6 µM [quencher, side channel, single point]
20 | Cc1ccc(F)cc1NC(=O)Cc1ncc(C(F)(F)F)cc1Cl | inconclusive: 5.01 µM [quencher, side channel, single point]
21 | COc1ccccc1NC(=O)C1=C(C)Nc2ncnn2C1c1ccc(C)o1 (stereo unspecified) | inconclusive: 39.8 µM [quencher, side channel, single point]
22 | Cc1ccc(S(=O)(=O)/N=C2\C=C(Nc3cccc(C(=O)O)c3)C(=O)c3ccccc32)c(C)c1 | inconclusive: 15.8 µM [quencher, side channel, partial curve]
23 | COc1ccc(-c2cc(-c3ccc(Br)cc3)nc3ncnn23)cc1OC | inconclusive: 39.8 µM [fluorescent, side channel, single point]
24 | CCC(=O)Nc1cccc(-c2csc(-c3ccccc3)n2)c1 | inconclusive: 0.355 µM [quencher, side channel, full curve, poor fit]
25 | CC(C)N1CCC2(CC1)C(C#N)=C(N)NC(S)=C2C#N | inconclusive: 39.8 µM [quencher, side channel, partial curve]
26 | COc1ccc(N2CCCC2)c(NC(=O)COc2ccccc2Cl)c1 | inactive
27 | COc1ccccc1C(=O)Oc1ccc2c(c1)O/C(=C\c1ccncc1)C2=O | inconclusive: 17.8 µM [quencher, partial curve]
28 | COc1ccc(CCNC(=O)CCN2C(=O)c3cccc4cccc(c34)C2=O)cc1OC | inconclusive: 2.82 µM [quencher, side channel, partial curve]
29 | CCc1ccc(OCC(=O)N/N=C\c2ccco2)c([N+](=O)[O-])c1 | inconclusive: 12.6 µM [quencher, side channel, partial curve, poor fit]
30 | O=c1[nH]cnc2sc3c(c12)CN(Cc1ccccc1)CC3 | inconclusive: 39.8 µM [quencher, single point]
31 | CC(=O)Oc1oc(-c2ccccc2)nc1/C=N/c1ccccn1 | inconclusive: 39.8 µM [quencher, single point]
32 | O=C(CNC(=O)c1ccccc1Br)N/N=C/c1cccs1 | inconclusive: 17.8 µM [quencher, side channel, partial curve]
33 | O=C(CSc1nc2ccc([N+](=O)[O-])cc2[nH]1)NC1CCCC1 | inconclusive: 15.8 µM [quencher, partial curve]
34 | C=C(C)COc1ccc(-c2[nH]ncc2-c2ccc(Br)cc2)c(O)c1 | inactive
35 | O=C(N/N=C/C=C/c1ccccc1)c1cccnc1 | inconclusive: 17.8 µM [quencher, side channel, partial curve]
36 | CC(C)c1ccc(-c2csc3ncnc(N4CCN(C)CC4)c23)cc1 | inactive
